The target of assay [1] is T1, hApple-chis (human, UniProt P03951 partial chain).
T1 construct: range 1-387; also called happle-chis-biotin
Description: BLI, antibody captured on sensor, antigen in solution. In general terms: In BLI a coated tip is dipped into the sample, and binding shifts an interference pattern.

Assay [2] deals with T2, recombinant human factor XI (hFXI) (human, UniProt P03951).
T2 construct: also called hFXI-Chis; hFXI-CHis
Described as above.

B1: huFE5huv4-Ld-Fc (Fc fusion)
chain: QVQLVESGGGSVQAGGSLRLSCAASGYTYSFNSMGWFRQAPGKGLEGVSVIYLGSTHYADSVKGRFTISQDNSKNTVYLQMNSLRAEDTAVYYCAADLLEYDGTWFGSTYNYWGQGTLVTVSS[sequence of human IgG1 Fc omitted]
notes: Humanized VHH fused to human IgG1 Fc; 'Ld' not explained
Regarding B1, the Kd (usually the constant that tells how readily two partners part at equilibrium) came to 2.86 pM in assay [1] and 656 pM in assay [2].

B2: huFE5huv6-Ld-Fc (Fc fusion)
chain: QVQLVESGGGLVQPGGSLRLSCAASGYTYSFNSMGWFRQAPGKGLEGVSVIYLGSTHYADSVKGRFTISQDNSKNTLYLQMNSLKPEDTAVYYCAADLLEYDGTWFGSTYNYWGQGTLVTVSS[sequence of human IgG1 Fc omitted]
notes: as for B1
Take B2: the Kd was below 1 pM in assay [1] and 656 pM in assay [2].

B3: huFE5huv3-Ld-Fc (Fc fusion)
chain: QVQLVESGGGLVQPGGSLRLSCAASGYTYSFNSMGWFRQAPGKEREGVAVIYLGSTHYADSVKGRFTISQDNSKNTVYLQMNSLRAEDTAVYYCAADLLEYDGTWFGSTYNYWGQGTLVTVSS[sequence of human IgG1 Fc omitted]
notes: as for B1
In the case of B3, the Kd in assay [1] was 1.44 pM; in assay [2], 456 pM.

B4: huFE5huv5-Ld-Fc (Fc fusion)
chain: QVQLVESGGGSVQAGGSLRLSCAASGYTYSFNSMGWFRQAPGKGLEGVSVIYLGSTHYADSVKGRFTISQDNSKNTLYLQMNSLKPEDTAVYYCAADLLEYDGTWFGSTYNYWGQGTLVTVSS[sequence of human IgG1 Fc omitted]
notes: as for B1
Turning to B4, the Kd in assay [1] stood at 1.56 pM; in assay [2] it was 656 pM.

B5: huFE56huv2-Ld-Fc (Fc fusion)
chain: QVQLVESGGGLVQPGGSLRLSCAASGHTYSSNYCMAWFRQAPGKEREGVAAIYSDGSTSYADSVKGRFTISRDNSKNTLYLQMNSLRAEDTAVYYCAATAYEGSWTGKQPLCLLYEYTYWGQGTLVTVSS[sequence of human IgG1 Fc omitted]
notes: as for B1
Take B5: the Kd in assay [1] was below 1 pM; in assay [2], 4210 pM.

B6: huFE56huv4-Ld-Fc (Fc fusion)
chain: QVQLVESGGGSVQAGGSLRLSCAASGHTYSSNYCMAWFRQAPGKGLEGVSAIYSDGSTSYADSVKGRFTISKDNSKNTLYLQMNSLRAEDTAVYYCAATAYEGSWTGKQPLCLLYEYTYWGQGTLVTVSS[sequence of human IgG1 Fc omitted]
notes: as for B1
As for B6, the figures for the Kd in assay [1] and in assay [2] were 1.33 pM and 3970 pM, respectively.

B7: huFE56huv3-Ld-Fc (Fc fusion)
chain: QVQLVESGGGLVQPGGSLRLSCAASGHTYSSNYCMAWFRQAPGKEREGVAAIYSDGSTSYADSVKGRFTISKDNSKNTLYLQMNSLRAEDTAVYYCAATAYEGSWTGKQPLCLLYEYTYWGQGTLVTVSS[sequence of human IgG1 Fc omitted]
notes: as for B1
With B7, the values for the equilibrium dissociation constant (Kd) in assay [1] and in assay [2] were 2.1 pM and 5970 pM, respectively.

B8: huFE56huv6-Ld-Fc (Fc fusion)
chain: QVQLVESGGGLVQPGGSLRLSCAASGHTYSSNYCMAWFRQAPGKGLEGVSAIYSDGSTSYADSVKGRFTISKDNSKNTLYLQMNSLKPEDTAVYYCAATAYEGSWTGKQPLCLLYEYTYWGQGTLVTVSS[sequence of human IgG1 Fc omitted]
notes: as for B1
B8: the dissociation constant Kd in assay [1] is 3.45 pM; in assay [2], 3970 pM.

B9: huFE56huv5-Ld-Fc (Fc fusion)
chain: QVQLVESGGGSVQAGGSLRLSCAASGHTYSSNYCMAWFRQAPGKGLEGVSAIYSDGSTSYADSVKGRFTISKDNSKNTLYLQMNSLKPEDTAVYYCAATAYEGSWTGKQPLCLLYEYTYWGQGTLVTVSS[sequence of human IgG1 Fc omitted]
notes: as for B1
With B9, the Kd is 3.21 pM in assay [1] and 3970 pM in assay [2].

B10: huFE13huv4-Ld-Fc (Fc fusion)
chain: QVQLVESGGGSVQAGGSLRLSCAASGYTYSMGAMAWFRQAPGKGLEGVSLIATSSGFISYTDSVKGRFTISQDNSKNTVYLQMNSLRAEDTAVYYCAAGTQFSWSPGSYNYWGQGTLVTVSS[sequence of human IgG1 Fc omitted]
notes: as for B1
B10: the results for the Kd in assay [1] and in assay [2] were 823 pM and 8840 pM, respectively.

B11: huFE13huv6-Ld-Fc (Fc fusion)
chain: QVQLVESGGGLVQPGGSLRLSCAASGYTYSMGAMAWFRQAPGKGLEGVSLIATSSGFISYTDSVKGRFTISQDNSKNTLYLQMNSLKPEDTAVYYCAAGTQFSWSPGSYNYWGQGTLVTVSS[sequence of human IgG1 Fc omitted]
notes: as for B1
For the molecule B11, the values for the Kd in assay [1] and in assay [2] were 912 pM and 8840 pM, respectively.

B12: huFE13huv5-Ld-Fc (Fc fusion)
chain: QVQLVESGGGSVQAGGSLRLSCAASGYTYSMGAMAWFRQAPGKGLEGVSLIATSSGFISYTDSVKGRFTISQDNSKNTLYLQMNSLKPEDTAVYYCAAGTQFSWSPGSYNYWGQGTLVTVSS[sequence of human IgG1 Fc omitted]
notes: as for B1
Consider B12, for which the values for the Kd in assay [1] and in assay [2] were 856 pM and 8840 pM, respectively.

B13: huFE13huv3-Ld-Fc (Fc fusion)
chain: QVQLVESGGGLVQPGGSLRLSCAASGYTYSMGAMAWFRQAPGKEREGVALIATSSGFISYTDSVKGRFTISQDNSKNTVYLQMNSLRAEDTAVYYCAAGTQFSWSPGSYNYWGQGTLVTVSS[sequence of human IgG1 Fc omitted]
notes: as for B1
For B13, the Kd in assay [1] was found to be 930 pM; in assay [2] it was 6840 pM.

B14: huFE35huv2-Ld-Fc (Fc fusion)
chain: QVQLVESGGGLVQPGGSLRLSCAASGFTFDDSDMGWYRQAPGNECELVSTISSDGRGFYADSVKGRFTISRDNSKNTLYLQMNSLRAEDTAVYYCAAGWYGSFCSGLGQGTLVTVSS[sequence of human IgG1 Fc omitted]
notes: as for B1
Take B14: the results for the Kd in assay [1] and in assay [2] were 1.21 pM and 25500 pM, respectively.

B15: huFE35huv4-Ld-Fc (Fc fusion)
chain: QVQLVESGGGSVQAGGSLRLSCTASGFTFDDSDMGWYRQAPGNECELVSTISSDGRGFYADSVKGRFTISQDNSKNTVYLQMNSLRAEDTAVYYCAAGWYGSFCSGLGQGTLVTVSS[sequence of human IgG1 Fc omitted]
notes: as for B1
The molecule B15 had a Kd in assay [1] of 1.54 pM.

B16: huFE35huv6-Ld-Fc (Fc fusion)
chain: QVQLVESGGGLVQPGGSLRLSCTASGFTFDDSDMGWYRQAPGNECELVSTISSDGRGFYADSVKGRFTISRDNSKNTLYLQMNSLKPEDTAVYYCAAGWYGSFCSGLGQGTLVTVSS[sequence of human IgG1 Fc omitted]
notes: as for B1
In the case of B16, the Kd came to 3.24 pM in assay [1] and 10200 pM in assay [2].

B17: huFE35huv3-Ld-Fc (Fc fusion)
chain: QVQLVESGGGLVQPGGSLRLSCTASGFTFDDSDMGWYRQAPGNECELVSTISSDGRGFYADSVKGRFTISRDNSKNTVYLQMNSLRAEDTAVYYCAAGWYGSFCSGLGQGTLVTVSS[sequence of human IgG1 Fc omitted]
notes: as for B1
As to B17, the values for the dissociation constant (Kd) in assay [1] and in assay [2] were below 1 pM and 9650 pM, respectively.

B18: huFE35huv5-Ld-Fc (Fc fusion)
chain: QVQLVESGGGSVQAGGSLRLSCTASGFTFDDSDMGWYRQAPGNECELVSTISSDGRGFYADSVKGRFTISQDNSKNTLYLQMNSLKPEDTAVYYCAAGWYGSFCSGLGQGTLVTVSS[sequence of human IgG1 Fc omitted]
notes: as for B1
With B18, the Kd in assay [1] was below 1 pM; in assay [2] it was 10200 pM.

B19: huFE97huv4-Ld-Fc (Fc fusion)
chain: QVQLVESGGGSVQAGGSLRLSCTASEFTFDDSDMAWYRQAPGNECELVSTITSDGGTYYADSVKGRFTISRDNSKNTMYLQMNSLRAEDTAVYYCAADQWGSAEGDCTSSYPGGYWGQGTLVTVSS[sequence of human IgG1 Fc omitted]
notes: as for B1
With B19, the dissociation constant (Kd) in assay [1] was below 1 pM; in assay [2], 2670 pM.

B20: huFE97huv3-Ld-Fc (Fc fusion)
chain: QVQLVESGGGLVQPGGSLRLSCTASEFTFDDSDMAWYRQAPGNECELVSTITSDGGTYYADSVKGRFTISQDNSKNTMYLQMNSLRAEDTAVYYCAADQWGSAEGDCTSSYPGGYWGQGTLVTVSS[sequence of human IgG1 Fc omitted]
notes: as for B1
For the molecule B20, the figures for the dissociation constant (Kd) in assay [1] and in assay [2] were 1.42 pM and 1980 pM, respectively.

B21: huFE97huv6-Ld-Fc (Fc fusion)
chain: QVQLVESGGGLVQPGGSLRLSCTASEFTFDDSDMAWYRQAPGNECELVSTITSDGGTYYADSVKGRFTISRDNSKNTLYLQMNSLKPEDTAVYYCAADQWGSAEGDCTSSYPGGYWGQGTLVTVSS[sequence of human IgG1 Fc omitted]
notes: as for B1
With B21, the Kd came out at 1.33 pM in assay [1] and 2670 pM in assay [2].

B22: huFE97huv5-Ld-Fc (Fc fusion)
chain: QVQLVESGGGSVQAGGSLRLSCTASEFTFDDSDMAWYRQAPGNECELVSTITSDGGTYYADSVKGRFTISRDNSKNTLYLQMNSLKPEDTAVYYCAADQWGSAEGDCTSSYPGGYWGQGTLVTVSS[sequence of human IgG1 Fc omitted]
notes: as for B1
Turning to B22, the Kd is below 1 pM in assay [1] and 2670 pM in assay [2].

B23: huFE148huv5-Ld-Fc (Fc fusion)
chain: QVQLVESGGGSVQAGGSLRLSCAASGYTFNNNFVGWFRQAPGKGLEGVSAIYSLGGSTYYADSVKGRFTISQDNSKNTLYLQMNSLKPEDTAVYYCAGAITWVPPLSHRRYTYWGQGTLVTVSS[sequence of human IgG1 Fc omitted]
notes: as for B1
As for B23, the dissociation constant (Kd) in assay [1] came out at 423 pM; in assay [2], 2640 pM.

B24: huFE148huv4-Ld-Fc (Fc fusion)
chain: QVQLVESGGGSVQAGGSLRLSCAASGYTFNNNFVGWFRQAPGKGLEGVSAIYSLGGSTYYADSVKGRFTISQDNSKNTVYLQMNSLRAEDTAVYYCAGAITWVPPLSHRRYTYWGQGTLVTVSS[sequence of human IgG1 Fc omitted]
notes: as for B1
With B24, the dissociation constant Kd in assay [1] was determined as 523 pM; in assay [2] it was 2640 pM.

B25: huFE148huv3-Ld-Fc (Fc fusion)
chain: QVQLVESGGGLVQPGGSLRLSCAASGYTFNNNFVGWFRQAPGKEREGVAAIYSLGGSTYYADSVKGRFTISQDNSKNTVYLQMNSLRAEDTAVYYCAGAITWVPPLSHRRYTYWGQGTLVTVSS[sequence of human IgG1 Fc omitted]
notes: as for B1
As for B25, the Kd in assay [1] came to 368 pM; in assay [2], 3450 pM.

(Values after patent US20240247076A1 (SUZHOU ALPHAMAB, published 2024).)
